Assay results taken from PubChem BioAssay AID1347165 (National Center for Advancing Translational Sciences (NCATS), 2019).
In all, about 220,000 compounds went through this assay and about 5,700 (2.6%) were called active. The inconclusive results got no clear call from the source; some entries with a clear call stand among them for comparison. The call rests on the fitted dose curve; in most records, active means well fitted inhibition curve with a large enough effect; inconclusive means small, poorly fitted or top-dose-only effect; inactive means no such curve, though single readings can be large or run the other way. A potency beside an inconclusive call is a rough fit, not a confirmed value.
Further: nearly all actives have a fitted effect of over 70% in size.
Potency means the concentration at half of the fitted maximal effect; tags describe the fitted curve by direction and shape.

What follows are compounds tested against Lysine-specific demethylase 5B (Homo sapiens) (UniProt Q9UGL1) (assay: Primary screen for KDM5B Histone Demethylases FDH-coupled qHTS). Conditions: FDH-coupled NADH fluorescence (FDH is formaldehyde dehydrogenase); series mostly up to 57.7 µM.
Chain of UniProt Q9UGL1 (Q9UGL1 whole entry, looked up): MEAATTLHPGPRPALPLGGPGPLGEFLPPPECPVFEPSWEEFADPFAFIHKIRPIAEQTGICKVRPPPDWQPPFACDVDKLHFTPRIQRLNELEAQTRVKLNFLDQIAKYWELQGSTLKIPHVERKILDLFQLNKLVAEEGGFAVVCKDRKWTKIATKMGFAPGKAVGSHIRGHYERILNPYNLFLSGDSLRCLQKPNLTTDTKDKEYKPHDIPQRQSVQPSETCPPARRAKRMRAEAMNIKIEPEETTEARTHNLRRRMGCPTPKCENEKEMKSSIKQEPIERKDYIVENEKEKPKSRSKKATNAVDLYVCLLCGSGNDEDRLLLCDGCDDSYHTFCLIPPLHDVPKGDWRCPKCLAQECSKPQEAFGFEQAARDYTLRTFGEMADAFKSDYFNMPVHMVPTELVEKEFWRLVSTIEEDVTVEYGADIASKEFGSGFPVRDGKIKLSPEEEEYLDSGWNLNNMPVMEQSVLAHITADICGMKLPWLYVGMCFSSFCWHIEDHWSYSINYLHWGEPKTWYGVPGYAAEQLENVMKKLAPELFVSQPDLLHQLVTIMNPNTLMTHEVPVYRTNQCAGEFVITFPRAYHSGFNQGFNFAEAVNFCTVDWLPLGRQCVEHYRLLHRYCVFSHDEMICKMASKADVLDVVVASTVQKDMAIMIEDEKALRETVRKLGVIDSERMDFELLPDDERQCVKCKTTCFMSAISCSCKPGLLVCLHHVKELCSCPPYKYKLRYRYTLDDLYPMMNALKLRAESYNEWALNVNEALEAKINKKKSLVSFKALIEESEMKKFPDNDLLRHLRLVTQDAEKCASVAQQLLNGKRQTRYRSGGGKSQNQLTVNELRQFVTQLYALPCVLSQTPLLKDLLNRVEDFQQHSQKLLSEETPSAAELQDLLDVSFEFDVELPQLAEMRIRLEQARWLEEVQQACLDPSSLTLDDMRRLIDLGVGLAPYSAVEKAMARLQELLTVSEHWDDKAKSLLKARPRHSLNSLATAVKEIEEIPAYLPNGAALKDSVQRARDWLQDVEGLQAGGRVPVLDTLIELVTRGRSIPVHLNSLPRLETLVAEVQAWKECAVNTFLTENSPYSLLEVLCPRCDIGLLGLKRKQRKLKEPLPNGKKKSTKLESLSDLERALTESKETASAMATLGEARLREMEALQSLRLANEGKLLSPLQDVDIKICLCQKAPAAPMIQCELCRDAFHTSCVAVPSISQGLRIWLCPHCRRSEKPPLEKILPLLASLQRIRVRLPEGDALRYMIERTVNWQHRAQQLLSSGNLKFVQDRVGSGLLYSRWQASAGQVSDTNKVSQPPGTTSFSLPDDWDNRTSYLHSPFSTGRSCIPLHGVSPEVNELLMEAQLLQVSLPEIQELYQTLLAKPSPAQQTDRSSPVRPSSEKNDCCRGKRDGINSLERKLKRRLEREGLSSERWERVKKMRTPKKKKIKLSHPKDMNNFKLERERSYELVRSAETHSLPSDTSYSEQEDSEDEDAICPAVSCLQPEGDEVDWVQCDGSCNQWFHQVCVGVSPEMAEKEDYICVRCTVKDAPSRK
Summary of the method: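 Measured: NADH fluorescence change, 30 min, RT. System: KDM5BΔAP 200 nM final, H3K4me3 peptide, α-KG, Fe(II), ascorbate, NAD⁺ plus FDH, pH 7.5 HEPES. Compounds: titrated, 10 min pre-incubation with enzyme.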
In the case of `Cc1ccc(F)c(OCC(=O)c2ccc3c(c2)N(C(C)C(=O)NCc2ccco2)C(=O)CO3)c1` (centres undefined), the Potency is reported as inconclusive: 31.6 µM [inhibitor, partial curve, poor fit].
`COc1cccc(-c2cc3c(=O)n(CCNC(=O)Cc4c[nH]c5ccccc45)ccn3n2)c1` was tested, and the Potency was “inactive”.
With `CC(C)n1nnc2cc(C(=O)N(C)CC(=O)Nc3cccc(C#N)c3)ccc21` the Potency was “inactive”.
For `CN(C)C(CNC(=O)C1CCC(C(C)(C)C)CC1)c1ccsc1` (centres undefined), the Potency was “inactive”.
For `COc1cc(C(=O)NCCSc2c(-c3ccccc3)[nH]c3ccccc23)cc(OC)c1OC`, the Potency was inconclusive: 28.2 µM [inhibitor, partial curve, poor fit].
`CCC(=O)Nc1cccc(-c2cn3c(C)csc3n2)c1` was tested, and the Potency was “inactive”.
For `Cc1ccc2oc(C(=O)Nc3cccc(C(=O)NC4CC4)c3)cc(=O)c2c1`, the Potency was “inactive”.
With `CC(Nc1ccc(-c2nc(CCCc3ccccc3)no2)cn1)c1cnn(C)c1` (centres undefined) the Potency was active: 28.2 µM.
In the case of `CN(C)C[C@@H]1CN(c2ncccn2)C[C@H]1NC(=O)Cc1ccc(F)cc1`, the Potency is reported as active: 28.2 µM.
`Oc1ccccc1CN1CCNc2cnc(OCc3cccnc3)cc2C1` was tested, and the Potency was inconclusive: 39.8 µM [inhibitor, single point].
`COc1cc(/C=C/c2nc(C#N)c(NCCCn3ccnc3)o2)cc(OC)c1OC` was tested, and the Potency was inconclusive: 20 µM [inhibitor, partial curve, poor fit].
In the case of `COc1ccccc1-c1c(C)nn2c(C(F)(F)F)cc(-c3ccccc3)nc12`, the Potency is reported as inconclusive: 17.8 µM [inhibitor, single point].
With `COCCNc1ncc(-c2cccc(O)c2)c2c1OCC2` the Potency was inconclusive: 31.6 µM [inhibitor, partial curve, poor fit].
With `CC(=O)c1ccc(NC(=O)CSc2ncc(-c3ccc(F)cc3)o2)cc1` the Potency was “inactive”.
In the case of `CSc1cccc(NC(=O)c2ccc3c(c2)c(C)c(C)n3Cc2ccc(F)cc2)c1`, the Potency is reported as inconclusive: 28.2 µM [inhibitor, partial curve, poor fit].
In the case of `CCCCCNC(=O)c1nnn2cc(C)[nH]c(=O)c12`, the Potency is reported as “inactive”.
`COc1ccc(CCCc2nnc(SCC(=O)Nc3ccc(C)c(C)c3)o2)cc1` was tested, and the Potency was inconclusive: 1.78 µM [inhibitor, partial curve, poor fit].
`COc1ccc(-c2cc3c(ccn3C(C)C)c(C(=O)NCc3c(C)cc(C)[nH]c3=O)n2)cn1` was tested, and the Potency was inconclusive: 3.16 µM [inhibitor, partial curve, poor fit].
For `CCc1ccc(S(=O)(=O)c2cn(C)c3cc(N4CCN(CC)CC4)c(F)cc3c2=O)cc1`, the Potency was inconclusive: 15.8 µM [inhibitor, partial curve, poor fit].
With `CCCc1c(C)[nH]c2nc3ccccc3n2c1=O` the Potency was inconclusive: 17.8 µM [inhibitor, partial curve, poor fit].
With `CC(C)NS(=O)(=O)c1ccc(OCC(=O)N2CCN(c3ccccc3F)CC2)cc1` the Potency was inconclusive: 12.6 µM [inhibitor, partial curve, poor fit].
With `Cc1cc(Nc2cccc(Cl)c2)nc2ccc(NC(=O)c3ccc(F)cc3Cl)cc12` the Potency was inconclusive: 35.5 µM [inhibitor, partial curve, poor fit].
With `COc1ccc2c(CN3CCC(C)CC3)cc(=O)oc2c1` the Potency was inconclusive: 35.5 µM [inhibitor, partial curve, poor fit].
In the case of `O=C(c1cc2ccccc2cc1O)N1CCCC(C(F)(F)F)C1` (centres undefined), the Potency is reported as inconclusive: 39.8 µM [inhibitor, partial curve, poor fit].
For `Cc1cc(C)c2oc(C(=O)Nc3ncc(Cc4ccccc4)s3)cc(=O)c2c1`, the Potency was “inactive”.
For `O=C(CN1CCCc2c(F)cc(F)cc21)Nc1cccc2nsnc12`, the Potency was inconclusive: 20 µM [inhibitor, partial curve, poor fit].
In the case of `CN1c2cc(C(=O)N3CCN(c4ccccc4F)CC3)ccc2C(=O)N2CCCCCC21` (centres undefined), the Potency is reported as inconclusive: 22.4 µM [inhibitor, partial curve, poor fit].
In the case of `Cc1ccc2nc(C)cc(C(=O)OC(C)C(=O)NCC(C)C)c2c1` (centres undefined), the Potency is reported as inconclusive: 28.2 µM [inhibitor, partial curve, poor fit].
For `Cc1cccc(S(=O)(=O)Nc2nc3ccccc3nc2Nc2cccc(F)c2)c1`, the Potency was “inactive”.
In the case of `Cc1ccc(Nc2nc(N)c(C(=O)C(C)C)s2)c(C)c1`, the Potency is reported as “inactive”.
`CC(C)CCNC(=O)CCCc1nnc2c(=O)n(-c3cccc(F)c3)ccn12` was tested, and the Potency was “inactive”.
In the case of `COc1ccc(C(=O)N(C)Cc2ccc(-c3ccccc3)cc2)cc1`, the Potency is reported as inconclusive: 7.94 µM [inhibitor, partial curve, poor fit].
`COCCOCC(=O)N1CCC2(CC1)NCCc1c2[nH]c2ccc(OC)cc12` was tested, and the Potency was inconclusive: 22.4 µM [inhibitor, partial curve, poor fit].
`Cc1ccc(CNC(=O)CC(C)Cc2nnc3c(=O)n(-c4cccc(F)c4)ccn23)cc1` (centres undefined) was tested, and the Potency was “inactive”.
`CC(=O)N1CCN(c2oc(-c3cccc(C)c3)nc2S(=O)(=O)c2ccccc2)CC1` was tested, and the Potency was inconclusive: 39.8 µM [inhibitor, single point].
With `N#Cc1ccc(NCCc2coc(-c3ccccc3)n2)nc1` the Potency was inconclusive: 35.5 µM [inhibitor, single point].
For `Cc1ccc(Cl)cc1NC(=O)C1CCCN(S(=O)(=O)c2c(C)noc2/C=C/N(C)C)C1` (centres undefined), the Potency was inconclusive: 31.6 µM [inhibitor, single point].
`O=C(NC1CCS(=O)(=O)C1)c1cc2c(s1)CN(C1CCCC1)C2` (centres undefined) was tested, and the Potency was inconclusive: 17.8 µM [inhibitor, partial curve, poor fit].
For `CCCNC(=O)Cc1csc2nc(C)c(-c3cc(C)n(-c4ccc(C)cc4)n3)c(=O)n12`, the Potency was active: 28.2 µM.
In the case of `O=C(NCCc1ccccc1)c1cc(-c2ccccc2)nc2n[nH]c(-c3ccccc3)c12`, the Potency is reported as inconclusive: 39.8 µM [inhibitor, single point].
With `c1ccc(Oc2cc3c(cn2)NCCN(Cc2ccsc2)C3)cc1` the Potency was inconclusive: 39.8 µM [inhibitor, partial curve, poor fit].
With `Cc1ccccc1NC(=O)Cn1c(=O)n(Cc2ccco2)c(=O)c2cccnc21` the Potency was inconclusive: 31.6 µM [inhibitor, single point].
With `CN(C)c1ccc(/C=C(\C#N)c2nc3ccccc3c(=O)[nH]2)cc1` the Potency was inconclusive: 35.5 µM [inhibitor, single point].
With `CC(C)Cc1nnc2sc(-c3cc4ccccc4[nH]3)nn12` the Potency was inconclusive: 12.6 µM [inhibitor, partial curve, poor fit].
`CCCCn1nc(C(=O)Nc2nc(-c3cc(F)ccc3F)cs2)c2ccccc2c1=O` was tested, and the Potency was “inactive”.
With `Cc1noc(-c2ccc(OC3CN(C(=O)NC4CCCCC4)C3)cc2)n1` the Potency was “inactive”.
With `O=C(c1cccnc1)N1CCCC(Cc2nc(C3CCOCC3)no2)C1` (centres undefined) the Potency was “inactive”.
With `Nc1cccc2c1C(=O)NC2` the Potency was inconclusive: 25.1 µM [inhibitor, partial curve, poor fit].
With `CCN1CCc2c(sc(NC(=O)Nc3cccc(C(C)=O)c3)c2C(N)=O)C1` the Potency was inconclusive: 20 µM [inhibitor, partial curve, poor fit].
With `O=C(CC1CCCN(c2cnn(CC3CC3)c(=O)c2)C1)NC1CC1` (centres undefined) the Potency was “inactive”.
In the case of `COc1ccc(C2c3c(n(C)c4ccccc34)C(=O)N2CC(=O)Nc2cccc(Cl)c2)cc1` (centres undefined), the Potency is reported as inconclusive: 14.1 µM [inhibitor, partial curve, poor fit].
For `CC(=O)c1cccc(NC(=O)CCc2c(C)c3ccc(O)cc3oc2=O)c1`, the Potency was inconclusive: 22.4 µM [inhibitor, partial curve, poor fit].
`CCCCSCC(O)CSc1nc(-c2ccccc2)cc(-c2ccc(C)cc2)c1C#N` (centres undefined) was tested, and the Potency was inconclusive: 25.1 µM [inhibitor, single point].
`COCCN1CC(CO)C2(CCN(C(=O)Cc3cccc(F)c3)CC2)C1` (centres undefined) was tested, and the Potency was inconclusive: 15.8 µM [inhibitor, partial curve, poor fit].
`CCCN1CCN(C(=O)Cn2c(-c3cccs3)cc3cc(F)ccc32)CC1` was tested, and the Potency was inconclusive: 31.6 µM [inhibitor, partial curve, poor fit].
In the case of `O=C(NCCc1ccccc1)c1ccc(Nc2nc3ccccc3n3nnnc23)cc1`, the Potency is reported as inconclusive: 22.4 µM [inhibitor, partial curve, poor fit].
For `O=C(/C=C/c1cccs1)OCC(=O)c1ccccc1`, the Potency was “inactive”.
With `COc1ccc(-c2cc(-c3ccccc3)c(C#N)c(SCC(=O)O)n2)cc1` the Potency was inconclusive: 28.2 µM [inhibitor, partial curve, poor fit].
For `COc1ccc(-c2cc(Nc3ccc(Br)cc3)nc(C)n2)cc1`, the Potency was inconclusive: 28.2 µM [inhibitor, partial curve, poor fit].
In the case of `COc1ccc2[nH]c3c(c2c1)CCNC31CCN(C(=O)Cc2cccc(F)c2)CC1`, the Potency is reported as inconclusive: 31.6 µM [inhibitor, partial curve, poor fit].
In the case of `COc1ccc(CNC(=O)c2ccc(-c3nc(CSc4ccc(C)cc4)c(C)o3)cc2)c(OC)c1`, the Potency is reported as inconclusive: 14.1 µM [inhibitor, partial curve, poor fit].
`COc1cccc(CCNC(=O)c2c(C)noc2-c2cc(OC)c(OC)c(OC)c2)c1` was tested, and the Potency was active: 28.2 µM.
For `CCN1c2cc(C(=O)NCc3ccccc3OC)ccc2C(=O)N2CCCCCC21` (centres undefined), the Potency was inconclusive: 25.1 µM [inhibitor, partial curve, poor fit].
`Cc1cccc(CCNC(=O)c2cc3c(s2)-c2c(C)cccc2OC3)c1` was tested, and the Potency was inconclusive: 10 µM [inhibitor, partial curve, poor fit].
